No constants are given. Whether binding was seen depends on the method and setting. In cells and extracts the contact can be indirect. Some entries that bind do so weakly or less than the wild type. Where a sequence is shown, tags or fusion partners need not be part of it.
How the values were obtained:
[1] = target: T1, FLAG-tagged MEIOC complete protein (mouse) (UniProt A2AG06); experiment: co-IP; HEK-293 cells overexpressing FLAG-tagged MEIOC or deletion mutants, pre-treated 2 h with 10 μM MG-132; IP with anti-FLAG M2 magnetic beads, western blot with anti-FLAG and anti-YTHDC2
T1 sequence: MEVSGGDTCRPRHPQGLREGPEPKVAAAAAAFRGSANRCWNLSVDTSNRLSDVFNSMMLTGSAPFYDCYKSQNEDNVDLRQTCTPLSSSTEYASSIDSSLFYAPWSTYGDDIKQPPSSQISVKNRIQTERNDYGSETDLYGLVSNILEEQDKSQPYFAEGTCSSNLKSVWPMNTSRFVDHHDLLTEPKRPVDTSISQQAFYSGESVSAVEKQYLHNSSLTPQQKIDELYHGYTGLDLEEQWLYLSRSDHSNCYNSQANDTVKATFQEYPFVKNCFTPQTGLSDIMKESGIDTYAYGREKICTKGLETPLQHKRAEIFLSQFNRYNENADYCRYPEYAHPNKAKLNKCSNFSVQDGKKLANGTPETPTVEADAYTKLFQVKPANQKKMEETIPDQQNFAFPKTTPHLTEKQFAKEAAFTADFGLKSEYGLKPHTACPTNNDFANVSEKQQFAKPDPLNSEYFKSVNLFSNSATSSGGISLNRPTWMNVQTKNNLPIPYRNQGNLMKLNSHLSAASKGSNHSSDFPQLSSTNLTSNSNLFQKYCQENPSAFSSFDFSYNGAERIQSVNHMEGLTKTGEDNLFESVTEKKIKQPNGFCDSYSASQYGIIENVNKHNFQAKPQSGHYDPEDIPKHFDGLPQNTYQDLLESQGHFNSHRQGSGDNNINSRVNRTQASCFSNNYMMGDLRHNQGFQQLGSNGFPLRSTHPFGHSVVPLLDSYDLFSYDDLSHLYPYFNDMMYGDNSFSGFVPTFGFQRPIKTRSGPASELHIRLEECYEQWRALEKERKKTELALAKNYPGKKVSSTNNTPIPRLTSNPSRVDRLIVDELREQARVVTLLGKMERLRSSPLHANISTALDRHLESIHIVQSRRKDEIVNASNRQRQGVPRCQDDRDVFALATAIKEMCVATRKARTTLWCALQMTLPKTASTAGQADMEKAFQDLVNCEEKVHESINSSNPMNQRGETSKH

[2] = target: T2, FLAG-tagged MEIOC deletion mutant ΔC [Tyr716-Lys922] (mouse) (UniProt A2AG06); experiment: as above
T2 sequence: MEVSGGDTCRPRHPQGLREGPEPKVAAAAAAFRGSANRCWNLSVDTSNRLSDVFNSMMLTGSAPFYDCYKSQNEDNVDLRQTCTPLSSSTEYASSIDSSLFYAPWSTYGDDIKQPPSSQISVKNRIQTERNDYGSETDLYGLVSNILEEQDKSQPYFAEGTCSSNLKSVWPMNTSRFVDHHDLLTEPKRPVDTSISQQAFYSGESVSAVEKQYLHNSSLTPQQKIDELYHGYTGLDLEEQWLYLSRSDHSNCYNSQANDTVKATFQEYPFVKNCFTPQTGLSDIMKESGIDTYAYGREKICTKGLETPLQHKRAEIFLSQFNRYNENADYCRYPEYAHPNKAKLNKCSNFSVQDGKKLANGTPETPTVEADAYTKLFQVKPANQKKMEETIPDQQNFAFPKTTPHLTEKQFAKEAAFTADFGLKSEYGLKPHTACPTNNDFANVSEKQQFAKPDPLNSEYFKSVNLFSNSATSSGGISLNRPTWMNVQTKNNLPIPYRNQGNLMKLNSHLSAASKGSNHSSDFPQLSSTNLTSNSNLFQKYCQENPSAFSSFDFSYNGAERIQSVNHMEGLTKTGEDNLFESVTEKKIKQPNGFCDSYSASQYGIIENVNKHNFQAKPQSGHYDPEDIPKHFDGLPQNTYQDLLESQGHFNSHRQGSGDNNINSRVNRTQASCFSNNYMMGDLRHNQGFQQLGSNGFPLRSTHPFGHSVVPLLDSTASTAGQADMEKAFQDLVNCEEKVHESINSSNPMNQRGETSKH

- binding [1]: binds
- binding [2]: no binding
B1: YTHDC2, in HEK-293 cells (protein, UniProt Q9H6S0 1-1430)
chain: MSRPSSVSPRQPAPGGGGGGGPSPCGPGGGGRAKGLKDIRIDEEVKIAVNIALERFRYGDQREMEFPSSLTSTERAFIHRLSQSLGLVSKSKGKGANRYLTVKKKDGSETAHAMMTCNLTHNTKHAVRSLIQRFPVTNKERTELLPKTERGNVFAVEAENREMSKTSGRLNNGIPQIPVKRGESEFDSFRQSLPVFEKQEEIVKIIKENKVVLIVGETGSGKTTQIPQFLLDDCFKNGIPCRIFCTQPRRLAAIAVAERVAAERRERIGQTIGYQIRLESRVSPKTLLTFCTNGVLLRTLMAGDSTLSTVTHVIVDEVHERDRFSDFLLTKLRDLLQKHPTLKLILSSAALDVNLFIRYFGSCPVIYIQGRPFEVKEMFLEDILRTTGYTNKEMLKYKKEKQQEEKQQTTLTEWYSAQENSFKPESQRQRTVLNVTDEYDLLDDGGDAVFSQLTEKDVNCLEPWLIKEMDACLSDIWLHKDIDAFAQVFHLILTENVSVDYRHSETSATALMVAAGRGFASQVEQLISMGANVHSKASNGWMALDWAKHFGQTEIVDLLESYSATLEFGNLDESSLVQTNGSDLSAEDRELLKAYHHSFDDEKVDLDLIMHLLYNICHSCDAGAVLIFLPGYDEIVGLRDRILFDDKRFADSTHRYQVFMLHSNMQTSDQKKVLKNPPAGVRKIILSTNIAETSITVNDVVFVIDSGKVKEKSFDALNFVTMLKMVWISKASAIQRKGRAGRCRPGICFRLFSRLRFQNMLEFQTPELLRMPLQELCLHTKLLAPVNCPIADFLMKAPEPPPALIVRNAVQMLKTIDAMDTWEDLTELGYHLADLPVEPHLGKMVLCAVVLKCLDPILTIACTLAYRDPFVLPTQASQKRAAMLCRKRFTAGAFSDHMALLRAFQAWQKARSDGWERAFCEKNFLSQATMEIIIGMRTQLLGQLRASGFVRARGGGDIRDVNTNSENWAVVKAALVAGMYPNLVHVDRENLVLTGPKEKKVRFHPASVLSQPQYKKIPPANGQAAAIKALPTDWLIYDEMTRAHRIANIRCCSAVTPVTILVFCGPARLASNALQEPSSFRVDGIPNDSSDSEMEDKTTANLAALKLDEWLHFTLEPEAASLLLQLRQKWHSLFLRRMRAPSKPWSQVDEATIRAIIAVLSTEEQSAGLQQPSGIGQRPRPMSSEELPLASSWRSNNSRKSSADTEFSDECTTAERVLMKSPSPALHPPQKYKDRGILHPKRGTEDRSDQSSLKSTDSSSYPSPCASPSPPSSGKGSKSPSPRPNMPVRYFIMKSSNLRNLEISQQKGIWSTTPSNERKLNRAFWESSIVYLVFSVQGSGHFQGFSRMSSEIGREKSQDWGSAGLGGVFKVEWIRKESLPFQFAHHLLNPWNDNKKVQISRDGQELEPLVGEQLLQLWERLPLGEKNTTD
